# Test results from PubChem BioAssay AID504937 (National Center for Advancing Translational Sciences (NCATS), 2011).
# The whole screen tested about 340,000 compounds, of which about 20 (0.006%) were called active. Inconclusive means that the source gave no clear call. Such entries were picked first, then a sample of the others. The call rests on the fitted dose curve; in most records, active means well fitted inhibition curve with a large enough effect; inconclusive means small, poorly fitted or top-dose-only effect; inactive means no such curve, though single readings can be large or run the other way. Where the call is inconclusive, the potency comes from a doubtful curve fit.
# Molecular target: Sphingomyelin phosphodiesterase (Homo sapiens) (UniProt P17405)
# Sequence of UniProt P17405 (P17405 whole entry, looked up): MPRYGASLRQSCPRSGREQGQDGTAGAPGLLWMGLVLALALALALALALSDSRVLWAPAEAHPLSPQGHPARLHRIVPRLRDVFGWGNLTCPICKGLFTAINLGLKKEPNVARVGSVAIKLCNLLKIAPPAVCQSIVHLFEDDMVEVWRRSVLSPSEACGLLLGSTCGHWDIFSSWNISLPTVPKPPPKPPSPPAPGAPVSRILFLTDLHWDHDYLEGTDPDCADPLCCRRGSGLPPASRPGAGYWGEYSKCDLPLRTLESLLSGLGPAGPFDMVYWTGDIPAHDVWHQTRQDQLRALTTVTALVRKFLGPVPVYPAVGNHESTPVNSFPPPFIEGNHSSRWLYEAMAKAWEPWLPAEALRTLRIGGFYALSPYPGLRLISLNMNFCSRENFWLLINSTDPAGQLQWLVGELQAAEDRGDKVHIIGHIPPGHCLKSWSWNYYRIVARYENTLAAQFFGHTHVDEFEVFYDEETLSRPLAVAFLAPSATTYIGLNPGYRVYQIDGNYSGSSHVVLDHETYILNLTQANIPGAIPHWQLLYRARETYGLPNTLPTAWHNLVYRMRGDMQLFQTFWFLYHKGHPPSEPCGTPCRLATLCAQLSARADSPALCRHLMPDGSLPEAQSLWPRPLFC
# Assay: Inhibitors of Secretory Acid Sphingomyelinase (S-ASM): qHTS
# Settings: placental ASM, HMU-PC fluorogenic substrate (series up to 57.5 µM), 60 min
# How it was run: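 Steps: dispense placental human ASM, pin compound, wait 10 min at room temperature, add HMU-PC0 substrate at 9 uM final, incubate 60 min at 37 °C, add stop solution raising pH to 10, read fluorescence.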
# Potency means the concentration at half of the fitted maximal effect; tags describe the fitted curve by direction and shape.
row,Compound,Potency
1,N/C(=N\OC(=O)CC1CCCCC1)c1cccc(Br)c1,inactive
2,O=C(COC(=O)/C=C/c1ccc(OC(F)F)cc1)Nc1ccc(S(=O)(=O)N2CCCC2)cc1,"inconclusive: 5620 µM [inhibitor, partial curve, poor fit]"
3,O=C(O)CCCCCCCCCCCNC(=O)NC12CC3CC(CC(C3)C1)C2,"inconclusive: 89.1 µM [inhibitor, single point]"
4,Oc1ccccc1N=Nc1nc(-c2ccccc2)c(-c2ccccc2)[nH]1,"inconclusive: 100 µM [inhibitor, single point]"
5,CC1(C)N=C(SCC(=O)Nc2ccc(Cl)cc2)C(c2ccc(Cl)cc2)=N1,"inconclusive: 100 µM [inhibitor, partial curve, poor fit]"
6,Cn1c(=O)c2c(nc(CN3CCN(c4ccccc4)CC3)n2Cc2c(F)cccc2Cl)n(C)c1=O,"inconclusive: 56.2 µM [inhibitor, partial curve]"
7,CC1=NN(c2nc(-c3ccc(C)cc3)cs2)C(=O)C1N=Nc1ccccc1O (configuration not stated),"inconclusive: 1780 µM [inhibitor, partial curve, poor fit]"
8,COc1ccc2c(c1)c(=O)c(Br)c(C)n2Cc1ccccc1,"inconclusive: 178 µM [inhibitor, partial curve, poor fit]"
9,C[C@]12CCC[C@H](O1)c1c(cc3c(c1O)C(=O)c1c(O)cc(O)cc1C3=O)O2,"inconclusive: 316 µM [inhibitor, partial curve, poor fit]"
10,O=c1c(-c2ccc(O)cc2)coc2cc(O)cc(O)c12,"inconclusive: 562 µM [inhibitor, partial curve, poor fit]"
11,C=C1CCC2C(C)(C)[C@H](O)CC[C@@]2(C)[C@@H]1COc1cc(=O)oc2ccccc12 (some centres not stated),"inconclusive: 1780 µM [inhibitor, partial curve, poor fit]"
12,COc1ccc(/C=N/n2cnc3c([nH]c4ccc(C)cc43)c2=O)cc1CN1CCCC1,"inconclusive: 100 µM [inhibitor, partial curve, poor fit]"
13,O=[N+]([O-])c1ccc(N/N=C/c2sc(N3CCOCC3)nc2-c2ccccc2)c(S(=O)(=O)Nc2ccccc2Cl)c1,"inconclusive: 200 µM [inhibitor, partial curve, poor fit]"
14,Cc1ccc(S(=O)(=O)/N=C2\SC(CC(=O)Nc3ccc(F)cc3)C(=O)N2c2ccccc2)cc1 (configuration not stated),inactive
15,O=C(Nc1nc(-c2ccc(Oc3ccccc3)cc2)cs1)C1=COCCO1,inactive
16,O=[N+]([O-])c1ccc(-n2nnnc2-c2ccccc2)cc1,inactive
17,COc1cc(/C=C(\CC(=O)O)c2nc3ccccc3s2)cc(OC)c1O,inactive
18,C=CCc1ccc(O)c(-c2ccc(O)c(CC=C)c2)c1,"inconclusive: 316 µM [inhibitor, partial curve, poor fit]"
19,CC(=O)NC1=NC(=O)/C(=C/c2cc(C)n(-c3cccc(C(=O)O)c3)c2C)S1,inactive
20,COC(=O)c1ccc(N/N=C/c2cc([N+](=O)[O-])cc(OC)c2O)cc1,"inconclusive: 1410 µM [inhibitor, partial curve, poor fit]"
21,CN(C(=O)COC(=O)CCc1c[nH]c2ccccc12)C(c1ccccc1)c1ccccc1,"inconclusive: 70.8 µM [inhibitor, single point]"

row,Compound,Potency
1,Cc1ccc2[nH]c3c(c2c1)CCCC3C(N)=O (configuration not stated),inactive
2,CN=C(Nc1ccc2c(c1)OCO2)SC1CC(=O)N(c2ccccc2)C1=O (configuration not stated),"inconclusive: 112 µM [inhibitor, partial curve, poor fit]"
3,Cc1cc(/C=C2/SC(=S)N(c3cccc(C(F)(F)F)c3)C2=O)c(C)n1-c1cccnc1,"inconclusive: 178 µM [inhibitor, partial curve, poor fit]"
4,COc1cccc(-c2sc3ccc(OC)cc3c2-c2ccc(OCCN3CCOCC3)cc2)c1,"inconclusive: 89.1 µM [inhibitor, partial curve, poor fit]"
5,CN(C)c1ccc(N=Nc2ccccc2C(=O)OCC(=O)NCC2CCCCC2)cc1,"inconclusive: 100 µM [inhibitor, partial curve]"
6,Cc1c(/C=N\NC(=O)C2COc3ccc(C(C)(C)C)cc3O2)c2ccccc2n1C (configuration not stated),"inconclusive: 100 µM [inhibitor, partial curve]"
7,CCS(=O)(=O)CCSc1nc2ccccc2o1,inactive
8,COc1ccc(/C=N/NC(=O)c2ccn[nH]2)cc1COc1ccc(Cl)cc1,"inconclusive: 79.4 µM [inhibitor, partial curve]"
9,O=C(Nc1nnc(SCc2ccc(Cl)cc2)s1)C1CC(=O)N(Cc2ccccc2)C1 (configuration not stated),"inconclusive: 112 µM [inhibitor, partial curve]"
10,CC(C)(C)NC(=O)C[C@H]1C[C@H](C(=O)N2CCOCC2)[C@@]2(CCC3CCCC3)c3[nH]c4cc(-c5ccco5)ccc4c3CCN2C1=O,"inconclusive: 126 µM [inhibitor, partial curve, poor fit]"
11,O=C(c1ccccc1Br)N1CCC(c2nc3ccccc3s2)CC1,inactive
12,C=CCOc1ccc2c(c1)CCC1C2CCC2(C)C(O)C(O)CC12 (configuration not stated),"inconclusive: 63.1 µM [inhibitor, partial curve]"
13,CCCCCCCCCCCCCCCC[n+]1cccc2ccccc21,"inconclusive: 50.1 µM [inhibitor, single point]"
14,COc1cc(C(=O)Nc2scc(-c3ccccc3)c2C(=O)O)cc(OC)c1OC,"inconclusive: 56.2 µM [inhibitor, partial curve]"
15,COc1ccc(C2c3ccc(O)cc3Oc3ncn4nc(-c5cccnc5)nc4c32)cc1OC (configuration not stated),"inconclusive: 89.1 µM [inhibitor, single point]"
16,COc1ccc(CCN2CC(C(=O)NCc3cnn(C(C)C)c3)CCC2=O)cc1 (configuration not stated),inactive
17,Cc1cccc(C(=O)N2CCN(c3ccc(C(F)(F)F)cn3)CC2)c1C,"inconclusive: 316 µM [inhibitor, partial curve, poor fit]"
18,CN1CCN(S(=O)(=O)c2cccc(C(=O)Nc3sc4c(c3-c3nc5ccccc5[nH]3)CCCC4)c2)CC1,"inconclusive: 89.1 µM [inhibitor, single point]"
19,O=C(O)c1nn(CCOc2ccc(Br)cc2)c(=O)c2ccccc12,"inconclusive: 89.1 µM [inhibitor, single point]"
20,O=C(NC(NC(=S)Nc1cccc(Cl)c1)C(Cl)(Cl)Cl)OCc1ccccc1 (configuration not stated),"inconclusive: 200 µM [inhibitor, partial curve, poor fit]"
21,O=C(c1ccc(Br)cc1)c1sc(N2CCOCC2)nc1-c1ccccc1,"inconclusive: 89.1 µM [inhibitor, partial curve, poor fit]"

row,Compound,Potency
1,Nc1ncnc(Nc2ccc(S(N)(=O)=O)cc2)n1,inactive
2,Cc1ccc(-n2cccc2C(=S)N=P(N(C)C)(N(C)C)N(C)C)cc1,"inconclusive: 10 µM [inhibitor, partial curve, poor fit]"
3,COc1ccc(NC(=O)/C(C#N)=C\c2ccc(N3CCOCC3)o2)cc1,"inconclusive: 112 µM [inhibitor, partial curve, poor fit]"
4,N#Cc1c(C#N)c(-c2ccccc2)n(-c2ccccc2)c1N,inactive
5,Cn1c(=O)c2c(nc(CN3CCN(c4ccccc4)CC3)n2CCc2ccccc2)n(C)c1=O,"inconclusive: 200 µM [inhibitor, partial curve, poor fit]"
6,CCCC(=O)Nc1cccc(NC(=O)c2ccc([N+](=O)[O-])cc2Cl)c1,inactive
7,O=C(N/N=C/c1ccc(OC(=O)c2ccccc2)c([N+](=O)[O-])c1)c1ccc(O)cc1,"inconclusive: 891 µM [inhibitor, partial curve, poor fit]"
8,C/C(=N\NC(=O)c1cccc(Br)c1)c1cccnc1,inactive
9,CCN(CC)CCNc1ccc(C)c2sc3ccc(O)cc3c(=O)c12,"inconclusive: 89.1 µM [inhibitor, single point]"
10,COc1cc(C(=O)Nc2nc(-c3cccs3)cs2)cc(OC)c1OC,"inconclusive: 25.1 µM [inhibitor, partial curve, poor fit]"
11,COc1ccc(NS(=O)(=O)c2ccc3oc4ccccc4c3c2)cn1,"inconclusive: 100 µM [inhibitor, partial curve, poor fit]"
12,CCN(Cc1ccccc1)S(=O)(=O)c1ccc(C(=O)N(CCCN(C)C)c2nc3cc4c(cc3s2)OCCO4)cc1,"inconclusive: 501 µM [inhibitor, partial curve, poor fit]"
13,Cn1cnnc1SCc1ccc(C(=O)N=Nc2c(O)n(Cc3ccc(Cl)cc3)c3ccccc23)cc1,"inconclusive: 126 µM [inhibitor, partial curve, poor fit]"
14,CC(C)(C)c1nc(N2CCN(C(=O)c3ccco3)CC2)c2nnn(Cc3ccccc3)c2n1,"inconclusive: 1780 µM [inhibitor, partial curve, poor fit]"
15,CCCCCCCCCCCCCCCC[N+](C)(C)CCN(Cc1ccc(OC)cc1)c1ncccn1,"inconclusive: 39.8 µM [inhibitor, partial curve]"
16,CCSc1nsc(NC(=O)Nc2ccc(F)cc2F)n1,inactive
17,CCOC(=O)N/N=C/c1ccc(N(CC)CC)cc1O,inactive
18,COc1ccc(CNc2nc3c(c(=O)n(Cc4ccc(Cl)cc4)c(=O)n3C)n2C)cc1,"inconclusive: 89.1 µM [inhibitor, single point]"
19,CCn1c(SCc2ccc(C(=O)Nc3cc(C)cc(C)c3)cc2)nnc1-c1ccncc1,inactive
20,Cc1ccc(C2=N/C(=C\c3cccs3)C(=O)N2Nc2ccccc2)cc1,"inconclusive: 89.1 µM [inhibitor, single point]"
